# Measured values published in the supplement of paper PMC8728848.
# Some of the results follow.
# B1: CLEC5A (Homo sapiens), Q9NY25 (protein)
# chain: MNWHMIISGLIVVVLKVVGMTLFLLYFPQIFNKSNDGFTTTRSYGTVSQIFGSSSPSPNGFITTRSYGTVCPKDWEFYQARCFFLSTSESSWNESRDFCKGKGSTLAIVNTPEKLKFLQDITDAEKYFIGLIYHREEKRWRWINNSVFNGNVTNQNQNFNCATIGLTKTFDAASCDISYRRICEKNAK
# What was measured:
# Assay in all cases: glycan array binding signal (z-score within array); higher = stronger binding
# Conditions in all cases: glycan notation: IUPAC condensed, linker removed
# Gal(b1-4)GlcNAc(b1-3)Fuc = target: Gal(b1-4)GlcNAc(b1-3)Fuc
# How it was run: (§1)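 Glycan array data came from 3228 arrays in the Consortium for Functional Glycomics database, and only arrays with an available protein sequence were kept. Glycan names were put into IUPAC-condensed notation, and columns mapping to the same glycan were averaged. The binding signal is a within-array Z-score, averaged across arrays of one protein sequence run at different concentrations or buffers and across linkers. A negative Z-score can be read as non-binding.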
# [1] = target: Gal(b1-4)GlcNAc(b1-3)Gal(b1-3)GalNAc
# How it was run: as §1
# [2] = target: Gal(b1-4)GlcNAc(b1-3)Gal(b1-3)GlcNAc
# How it was run: as §1
# [3] = target: Gal(b1-4)GlcNAc(b1-3)Gal(b1-4)Glc
# How it was run: as §1
# [4] = target: Gal(b1-4)GlcNAc(b1-3)Gal(b1-4)GlcNAc
# How it was run: as §1
# [5] = target: Gal(b1-4)GlcNAc(b1-3)Gal(b1-4)GlcNAc(b1-2)Man(a1-3)[Gal(b1-4)GlcNAc(b1-3)Gal(b1-4)GlcNAc(b1-2)Man(a1-6)]Man(b1-4)GlcNAc(b1-4)GlcNAc
# How it was run: as §1
# [6] = target: Gal(b1-4)GlcNAc(b1-3)Gal(b1-4)GlcNAc(b1-2)Man(a1-3)[Gal(b1-4)GlcNAc(b1-3)Gal(b1-4)GlcNAc(b1-2)Man(a1-6)]Man(b1-4)GlcNAc(b1-4)[Fuc(a1-6)]GlcNAc
# How it was run: as §1
# [7] = target: Gal(b1-4)GlcNAc(b1-3)Gal(b1-4)GlcNAc(b1-2)[Gal(b1-4)GlcNAc(b1-3)Gal(b1-4)GlcNAc(b1-6)]Man(a1-6)[Gal(b1-4)GlcNAc(b1-3)Gal(b1-4)GlcNAc(b1-2)Man(a1-3)]Man(b1-4)GlcNAc(b1-4)GlcNAc
# How it was run: as §1
# [8] = target: Gal(b1-4)GlcNAc(b1-3)Gal(b1-4)GlcNAc(b1-2)[Gal(b1-4)GlcNAc(b1-3)Gal(b1-4)GlcNAc(b1-6)]Man(a1-6)[Gal(b1-4)GlcNAc(b1-3)Gal(b1-4)GlcNAc(b1-2)Man(a1-3)]Man(b1-4)GlcNAc(b1-4)[Fuc(a1-6)]GlcNAc
# How it was run: as §1
# [9] = target: Gal(b1-4)GlcNAc(b1-3)Gal(b1-4)GlcNAc(b1-3)Gal(b1-4)Glc
# How it was run: as §1
# [10] = target: Gal(b1-4)GlcNAc(b1-3)Gal(b1-4)GlcNAc(b1-3)Gal(b1-4)GlcNAc
# How it was run: as §1
# [11] = target: Gal(b1-4)GlcNAc(b1-3)Gal(b1-4)GlcNAc(b1-3)Gal(b1-4)GlcNAc(b1-2)Man(a1-3)[Gal(b1-4)GlcNAc(b1-3)Gal(b1-4)GlcNAc(b1-3)Gal(b1-4)GlcNAc(b1-2)Man(a1-6)]Man(b1-4)GlcNAc(b1-4)GlcNAc
# How it was run: as §1
# [12] = target: Gal(b1-4)GlcNAc(b1-3)Gal(b1-4)GlcNAc(b1-3)Gal(b1-4)GlcNAc(b1-2)Man(a1-3)[Gal(b1-4)GlcNAc(b1-3)Gal(b1-4)GlcNAc(b1-3)Gal(b1-4)GlcNAc(b1-2)Man(a1-6)]Man(b1-4)GlcNAc(b1-4)[Fuc(a1-6)]GlcNAc
# How it was run: as §1
# [13] = target: Gal(b1-4)GlcNAc(b1-3)Gal(b1-4)GlcNAc(b1-3)Gal(b1-4)GlcNAc(b1-2)[Gal(b1-4)GlcNAc(b1-3)Gal(b1-4)GlcNAc(b1-3)Gal(b1-4)GlcNAc(b1-6)]Man(a1-6)[Gal(b1-4)GlcNAc(b1-3)Gal(b1-4)GlcNAc(b1-3)Gal(b1-4)GlcNAc(b1-2)Man(a1-3)]Man(b1-4)GlcNAc(b1-4)[Fuc(a1-6)]GlcNAc
# How it was run: as §1
# [14] = target: Gal(b1-4)GlcNAc(b1-3)Gal(b1-4)GlcNAc(b1-3)Gal(b1-4)GlcNAc(b1-3)Gal(b1-4)GlcNAc(b1-2)Man(a1-3)[Gal(b1-4)GlcNAc(b1-3)Gal(b1-4)GlcNAc(b1-3)Gal(b1-4)GlcNAc(b1-3)Gal(b1-4)GlcNAc(b1-2)Man(a1-6)]Man(b1-4)GlcNAc(b1-4)GlcNAc
# How it was run: as §1
# [15] = target: Gal(b1-4)GlcNAc(b1-3)Gal(b1-4)GlcNAc(b1-3)Gal(b1-4)GlcNAc(b1-3)Gal(b1-4)GlcNAc(b1-2)Man(a1-3)[Gal(b1-4)GlcNAc(b1-3)Gal(b1-4)GlcNAc(b1-3)Gal(b1-4)GlcNAc(b1-3)Gal(b1-4)GlcNAc(b1-2)Man(a1-6)]Man(b1-4)GlcNAc(b1-4)[Fuc(a1-6)]GlcNAc
# How it was run: as §1
# [16] = target: Gal(b1-4)GlcNAc(b1-3)Gal(b1-4)GlcNAc(b1-3)Gal(b1-4)GlcNAc(b1-3)Gal(b1-4)GlcNAc(b1-2)[Gal(b1-4)GlcNAc(b1-3)Gal(b1-4)GlcNAc(b1-3)Gal(b1-4)GlcNAc(b1-3)Gal(b1-4)GlcNAc(b1-6)]Man(a1-6)[Gal(b1-4)GlcNAc(b1-3)Gal(b1-4)GlcNAc(b1-3)Gal(b1-4)GlcNAc(b1-3)Gal(b1-4)GlcNAc(b1-2)Man(a1-3)]Man(b1-4)GlcNAc(b1-4)[Fuc(a1-6)]GlcNAc
# How it was run: as §1
# [17] = target: Gal(b1-4)GlcNAc(b1-3)Gal(b1-4)GlcNAc(b1-3)Gal(b1-4)GlcNAc(b1-3)Gal(b1-4)GlcNAc(b1-3)Gal(b1-4)GlcNAc(b1-2)Man(a1-3)[Gal(b1-4)GlcNAc(b1-3)Gal(b1-4)GlcNAc(b1-3)Gal(b1-4)GlcNAc(b1-3)Gal(b1-4)GlcNAc(b1-3)Gal(b1-4)GlcNAc(b1-2)Man(a1-6)]Man(b1-4)GlcNAc(b1-4)GlcNAc
# How it was run: as §1
# [18] = target: Gal(b1-4)GlcNAc(b1-3)Gal(b1-4)GlcNAc(b1-3)Gal(b1-4)GlcNAc(b1-3)Gal(b1-4)GlcNAc(b1-3)Gal(b1-4)GlcNAc(b1-2)Man(a1-3)[Gal(b1-4)GlcNAc(b1-3)Gal(b1-4)GlcNAc(b1-3)Gal(b1-4)GlcNAc(b1-3)Gal(b1-4)GlcNAc(b1-3)Gal(b1-4)GlcNAc(b1-2)Man(a1-6)]Man(b1-4)GlcNAc(b1-4)[Fuc(a1-6)]GlcNAc
# How it was run: as §1
# [19] = target: Gal(b1-4)GlcNAc(b1-3)Gal(b1-4)GlcNAc(b1-3)Gal(b1-4)GlcNAc(b1-3)Gal(b1-4)GlcNAc(b1-3)Gal(b1-4)GlcNAc(b1-2)[Gal(b1-4)GlcNAc(b1-3)Gal(b1-4)GlcNAc(b1-3)Gal(b1-4)GlcNAc(b1-3)Gal(b1-4)GlcNAc(b1-3)Gal(b1-4)GlcNAc(b1-6)]Man(a1-6)[Gal(b1-4)GlcNAc(b1-3)Gal(b1-4)GlcNAc(b1-3)Gal(b1-4)GlcNAc(b1-3)Gal(b1-4)GlcNAc(b1-3)Gal(b1-4)GlcNAc(b1-2)Man(a1-3)]Man(b1-4)GlcNAc(b1-4)[Fuc(a1-6)]GlcNAc
# How it was run: as §1
# [20] = target: Gal(b1-4)GlcNAc(b1-3)Gal(b1-4)GlcNAc(b1-3)Gal(b1-4)GlcNAc(b1-3)Gal(b1-4)GlcNAc(b1-3)Gal(b1-4)GlcNAc(b1-3)Gal(b1-4)GlcNAc(b1-2)Man(a1-3)[Gal(b1-4)GlcNAc(b1-3)Gal(b1-4)GlcNAc(b1-3)Gal(b1-4)GlcNAc(b1-3)Gal(b1-4)GlcNAc(b1-3)Gal(b1-4)GlcNAc(b1-3)Gal(b1-4)GlcNAc(b1-2)Man(a1-6)]Man(b1-4)GlcNAc(b1-4)GlcNAc
# How it was run: as §1
# [21] = target: Gal(b1-4)GlcNAc(b1-3)Gal(b1-4)GlcNAc(b1-3)GalNAc
# How it was run: as §1
# [22] = target: Gal(b1-4)GlcNAc(b1-3)Gal(b1-4)GlcNAc(b1-3)[Gal(b1-4)GlcNAc(b1-3)Gal(b1-4)GlcNAc(b1-6)]GalNAc
# How it was run: as §1
binder,measurement,setting,value
B1,glycan array binding signal (z-score),Gal(b1-4)GlcNAc(b1-3)Fuc,-0.32
same,glycan array binding signal (z-score),[1],0.164
same,glycan array binding signal (z-score),[2],0.469
same,glycan array binding signal (z-score),[3],-0.341
same,glycan array binding signal (z-score),[4],-0.145
same,glycan array binding signal (z-score),[5],0.323
same,glycan array binding signal (z-score),[6],0.05
same,glycan array binding signal (z-score),[7],0.533
same,glycan array binding signal (z-score),[8],0.722
same,glycan array binding signal (z-score),[9],0.258
same,glycan array binding signal (z-score),[10],0.076
same,glycan array binding signal (z-score),[11],0.157
same,glycan array binding signal (z-score),[12],0.104
same,glycan array binding signal (z-score),[13],0.558
same,glycan array binding signal (z-score),[14],0.796
same,glycan array binding signal (z-score),[15],1.88
same,glycan array binding signal (z-score),[16],0.096
same,glycan array binding signal (z-score),[17],1.44
same,glycan array binding signal (z-score),[18],1.38
same,glycan array binding signal (z-score),[19],0.25
same,glycan array binding signal (z-score),[20],-0.035
same,glycan array binding signal (z-score),[21],-0.121
same,glycan array binding signal (z-score),[22],0.236
